Data published in the supplement of paper PMC12217912.
This is one part of the list. Sequences were assembled here from the parent chain. Inactive controls read about 0.05.

B1: TEV protease; numbered along this chain (parent)
chain: MGESLFKGPRDYNPISSSICHLTNESDGHTTSLYGIGFGPFIITNKHLFRRNNGTLVVQSLHGVFKVKDTTTLQQHLVDGRDMIIIRMPKDFPPFPQKLKFREPQREERICLVTTNFQTKSMSSMVSDTSCTFPSGDGIFWKHWIQTKDGQCGSPLVSTRDGFIVGIHSASNFTNTNNYFTSVPKNFMELLTNQEAQQWVSGWRLNADSVLWGGHKVFMVKPEEPFQPVKEATQL

Variants of: B1
Test: raw area under fraction-flipped curve 0-4 h after induction (AUC4h, not background-subtracted), DNA-recorder readout of cleavage of the substrate (dimensionless); higher = more cleavage of the substrate by the protease variant
Conditions: temperature: 34 °C; time window: 0-4 h after rhamnose induction
Procedure: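 In vivo DNA recorder in E. coli TOP10(DE3) ΔrhaA at 34 °C. Each TEVp single-site mutant (parent TEVp 0) is paired with a single-site variant of the 7-mer TEVs (canonical ENLYFQ|S). The substrate sits between flexible linkers in a Bxb1-sfGFP-TEVs-SsrA fusion, so cleavage stabilises Bxb1 and speeds flipping of a recombination array, read by NGS. The value is the raw area under the fraction-flipped curve over 0-4 h after rhamnose induction (AUC4h), with ≥20 reads per time point. It is not background-subtracted; inactive controls average about 0.047.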
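Also: Bxb1 expression induced with 0.2% (w/v) L-rhamnose at OD600 near 0.5, cultures sampled hourly, flipped fraction per protease–substrate barcode pair counted by paired-end Illumina sequencing.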

With MGESLFKGPRDYNPISSSICHLTNESDGHTTSLYGIGFGPFIITNKHLFRRNNGTLVVQSLHGVFKVKDTTTLQQHLVDGRDMIIIRMPKDFPPFPQKLKFREPQREERIALVTTNFQTKSMSSMVSDTSCTFPSGDGIFWKHWIQTKDGQCGSPLVSTRDGFIVGIHSASNFTNTNNYFTSVPKNFMELLTNQEAQQWVSGWRLNADSVLWGGHKVFMVKPEEPFQPVKEATQL [C111A] as the variant, how does the “area with substrate FNLYFQS” value read?
Its value is 0.0576.

What about the “area with substrate MNLYFQS” value of the same variant?
The value was 0.0751.

What about the “area with substrate NNLYFQS” value of the same variant?
The value was 0.0741.

And the “area with substrate SNLYFQS” value?
The value was 0.0475.

What does the source list for MGESLFKGPRDYNPISSSICHLTNESDGHTTSLYGIGFGPFIITNKHLFRRNNGTLVVQSLHGVFKVKDTTTLQQHLVDGRDMIIIRMPKDFPPFPQKLKFREPQREERICLKTTNFQTKSMSSMVSDTSCTFPSGDGIFWKHWIQTKDGQCGSPLVSTRDGFIVGIHSASNFTNTNNYFTSVPKNFMELLTNQEAQQWVSGWRLNADSVLWGGHKVFMVKPEEPFQPVKEATQL [V113K]?
area with substrate FNLYFQS: 0.0416; area with substrate HNLYFQS: 0.0561; area with substrate INLYFQS: 0.0546; area with substrate LNLYFQS: 0.0722; area with substrate NNLYFQS: 0.0642; area with substrate PNLYFQS: 0.0607; area with substrate QNLYFQS: 0.0545; area with substrate SNLYFQS: 0.055; area with substrate WNLYFQS: 0.0525

For MGESLFKGPRDYNPISSSICHLTNESDGHTTSLYGIGFGPFIITNKHLFRRNNGTLVVQSLHGVFKVKDTTTLQQHLVDGRDMIIIRMPKDFPPFPQKLKFREPQREERICLVLTNFQTKSMSSMVSDTSCTFPSGDGIFWKHWIQTKDGQCGSPLVSTRDGFIVGIHSASNFTNTNNYFTSVPKNFMELLTNQEAQQWVSGWRLNADSVLWGGHKVFMVKPEEPFQPVKEATQL [T114L], which “area with substrate FNLYFQS” value is on record?
Its value is 0.0705.

What about the “area with substrate HNLYFQS” value of the same variant?
The value was 0.0582.

And the “area with substrate INLYFQS” value?
The value was 0.0836.

What about the “area with substrate KNLYFQS” value of the same variant?
The value was 0.0596.

And the “area with substrate LNLYFQS” value?
The value was 0.0723.

And the “area with substrate PNLYFQS” value?
The value was 0.0578.

What about the “area with substrate SNLYFQS” value of the same variant?
The value was 0.0682.

What about the “area with substrate TNLYFQS” value of the same variant?
The value was 0.107.

And the “area with substrate WNLYFQS” value?
Its value is 0.0586.

What about the “area with substrate YNLYFQS” value of the same variant?
The value was 0.068.

For MGESLFKGPRDYNPISSSICHLTNESDGHTTSLYGIGFGPFIITNKHLFRRNNGTLVVQSLHGVFKVKDTTTLQQHLVDGRDMIIIRMPKDFPPFPQKLKFREPQREERICLVTRNFQTKSMSSMVSDTSCTFPSGDGIFWKHWIQTKDGQCGSPLVSTRDGFIVGIHSASNFTNTNNYFTSVPKNFMELLTNQEAQQWVSGWRLNADSVLWGGHKVFMVKPEEPFQPVKEATQL [T115R], which “area with substrate FNLYFQS” value is on record?
The value was 0.0224.

What about the “area with substrate GNLYFQS” value of the same variant?
The value was 0.0706.

What about the “area with substrate HNLYFQS” value of the same variant?
Its value is 0.0749.

And the “area with substrate INLYFQS” value?
Its value is 0.058.

And the “area with substrate LNLYFQS” value?
The value was 0.0281.

And the “area with substrate QNLYFQS” value?
The value was 0.0695.

What about the “area with substrate TNLYFQS” value of the same variant?
Its value is 0.0654.

What about the “area with substrate VNLYFQS” value of the same variant?
Its value is 0.0626.

Which results are given for MGESLFKGPRDYNPISSSICHLTNESDGHTTSLYGIGFGPFIITNKHLFRRNNGTLVVQSLHGVFKVKDTTTLQQHLVDGRDMIIIRMPKDFPPFPQKLKFREPQREERICLVTTFFQTKSMSSMVSDTSCTFPSGDGIFWKHWIQTKDGQCGSPLVSTRDGFIVGIHSASNFTNTNNYFTSVPKNFMELLTNQEAQQWVSGWRLNADSVLWGGHKVFMVKPEEPFQPVKEATQL [N116F]?
area with substrate FNLYFQS: 0.0798; area with substrate GNLYFQS: 0.0634; area with substrate INLYFQS: 0.0609; area with substrate MNLYFQS: 0.0672; area with substrate NNLYFQS: 0.078; area with substrate RNLYFQS: 0.0541; area with substrate WNLYFQS: 0.0531; area with substrate YNLYFQS: 0.0575

With MGESLFKGPRDYNPISSSICHLTNESDGHTTSLYGIGFGPFIITNKHLFRRNNGTLVVQSLHGVFKVKDTTTLQQHLVDGRDMIIIRMPKDFPPFPQKLKFREPQREERICLVTTVFQTKSMSSMVSDTSCTFPSGDGIFWKHWIQTKDGQCGSPLVSTRDGFIVGIHSASNFTNTNNYFTSVPKNFMELLTNQEAQQWVSGWRLNADSVLWGGHKVFMVKPEEPFQPVKEATQL [N116V] as the variant, how does the “area with substrate FNLYFQS” value read?
The value was 0.0644.

And the “area with substrate INLYFQS” value?
The value was 0.0477.

And the “area with substrate KNLYFQS” value?
The value was 0.0474.

And the “area with substrate MNLYFQS” value?
The value was 0.0688.

What about the “area with substrate NNLYFQS” value of the same variant?
The value was 0.0549.

What about the “area with substrate WNLYFQS” value of the same variant?
The value was 0.0582.

What does the source list for MGESLFKGPRDYNPISSSICHLTNESDGHTTSLYGIGFGPFIITNKHLFRRNNGTLVVQSLHGVFKVKDTTTLQQHLVDGRDMIIIRMPKDFPPFPQKLKFREPQREERICLVTTNFQSKSMSSMVSDTSCTFPSGDGIFWKHWIQTKDGQCGSPLVSTRDGFIVGIHSASNFTNTNNYFTSVPKNFMELLTNQEAQQWVSGWRLNADSVLWGGHKVFMVKPEEPFQPVKEATQL [T119S]?
area with substrate FNLYFQS: 0.0599; area with substrate HNLYFQS: 0.0625; area with substrate INLYFQS: 0.0729; area with substrate LNLYFQS: 0.0616; area with substrate SNLYFQS: 0.0306

Which “area with substrate FNLYFQS” value does the source give for MGESLFKGPRDYNPISSSICHLTNESDGHTTSLYGIGFGPFIITNKHLFRRNNGTLVVQSLHGVFKVKDTTTLQQHLVDGRDMIIIRMPKDFPPFPQKLKFREPQREERICLVTTNFQTKFMSSMVSDTSCTFPSGDGIFWKHWIQTKDGQCGSPLVSTRDGFIVGIHSASNFTNTNNYFTSVPKNFMELLTNQEAQQWVSGWRLNADSVLWGGHKVFMVKPEEPFQPVKEATQL [S121F] here?
Its value is 0.0926.

What about the “area with substrate GNLYFQS” value of the same variant?
Its value is 0.0605.

And the “area with substrate SNLYFQS” value?
Its value is 0.0661.

And the “area with substrate WNLYFQS” value?
The value was 0.051.

And the “area with substrate YNLYFQS” value?
Its value is 0.0662.

Which “area with substrate FNLYFQS” value does the source give for MGESLFKGPRDYNPISSSICHLTNESDGHTTSLYGIGFGPFIITNKHLFRRNNGTLVVQSLHGVFKVKDTTTLQQHLVDGRDMIIIRMPKDFPPFPQKLKFREPQREERICLVTTNFQTKSMSCMVSDTSCTFPSGDGIFWKHWIQTKDGQCGSPLVSTRDGFIVGIHSASNFTNTNNYFTSVPKNFMELLTNQEAQQWVSGWRLNADSVLWGGHKVFMVKPEEPFQPVKEATQL [S124C] here?
The value was 0.069.

And the “area with substrate HNLYFQS” value?
Its value is 0.0538.

What about the “area with substrate KNLYFQS” value of the same variant?
Its value is 0.0826.

What about the “area with substrate MNLYFQS” value of the same variant?
Its value is 0.0666.

What about the “area with substrate WNLYFQS” value of the same variant?
Its value is 0.0561.

And the “area with substrate YNLYFQS” value?
Its value is 0.0514.

With MGESLFKGPRDYNPISSSICHLTNESDGHTTSLYGIGFGPFIITNKHLFRRNNGTLVVQSLHGVFKVKDTTTLQQHLVDGRDMIIIRMPKDFPPFPQKLKFREPQREERICLVTTNFQTKSMSYMVSDTSCTFPSGDGIFWKHWIQTKDGQCGSPLVSTRDGFIVGIHSASNFTNTNNYFTSVPKNFMELLTNQEAQQWVSGWRLNADSVLWGGHKVFMVKPEEPFQPVKEATQL [S124Y] as the variant, how does the “area with substrate FNLYFQS” value read?
Its value is 0.0691.

And the “area with substrate HNLYFQS” value?
The value was 0.0628.

What about the “area with substrate LNLYFQS” value of the same variant?
The value was 0.0666.

What about the “area with substrate QNLYFQS” value of the same variant?
The value was 0.0752.

What about the “area with substrate WNLYFQS” value of the same variant?
The value was 0.0699.
